Earlier results in patent publication US20120159656A1, “COMPOSITIONS AND METHODS FOR […] DEFECTS” (Galenea Corp., priority 2009, published 2012).

Tested on: gamma oscillation power in various brain regions
Conditions: various brain regions of rodents; cited from earlier work

## c1ccc(C2(N3CCCCC3)CCCCC2)cc1 [PCP, phencyclidine]
  gamma oscillation power in response to NMDA-R antagonists: Increases in gamma oscillation power
